PMC11584650, “An inhibitory segment within G-patch activators tunes Prp43-ATPase activity during ribosome assembly” (Nature Communications, 2024)
These are yes or no findings as the source states them, for the method shown. Some results given as binding are weak or reduced against the parent protein; the word gives no strength. Where a sequence is shown, tags or fusion partners need not be part of it.

By UniProt entry, the sequences of proteins in these tests, tags left out.
UniProt P53131: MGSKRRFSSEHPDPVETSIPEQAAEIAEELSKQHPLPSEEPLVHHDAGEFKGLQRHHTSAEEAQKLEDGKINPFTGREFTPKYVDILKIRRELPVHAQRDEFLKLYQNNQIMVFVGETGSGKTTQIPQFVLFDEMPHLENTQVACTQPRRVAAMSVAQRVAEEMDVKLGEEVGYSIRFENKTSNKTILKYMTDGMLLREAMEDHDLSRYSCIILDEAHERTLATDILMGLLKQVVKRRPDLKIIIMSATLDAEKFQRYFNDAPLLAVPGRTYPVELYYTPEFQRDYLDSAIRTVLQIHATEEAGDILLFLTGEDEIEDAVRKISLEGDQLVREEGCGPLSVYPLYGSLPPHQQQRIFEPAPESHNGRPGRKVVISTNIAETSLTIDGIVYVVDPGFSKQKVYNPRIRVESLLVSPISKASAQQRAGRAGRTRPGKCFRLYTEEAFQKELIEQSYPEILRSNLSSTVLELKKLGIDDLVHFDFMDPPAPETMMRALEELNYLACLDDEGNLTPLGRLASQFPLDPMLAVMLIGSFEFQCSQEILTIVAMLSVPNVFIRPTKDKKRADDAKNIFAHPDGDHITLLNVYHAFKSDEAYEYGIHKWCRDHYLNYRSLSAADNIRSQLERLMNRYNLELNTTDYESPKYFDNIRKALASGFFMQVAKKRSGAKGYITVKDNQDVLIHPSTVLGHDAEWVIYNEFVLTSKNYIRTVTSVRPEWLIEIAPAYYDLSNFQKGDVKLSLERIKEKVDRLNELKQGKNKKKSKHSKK

Target: Prp43 (yeast two-hybrid fusion) (S. cerevisiae) (UniProt P53131)
Assay: two-hybrid; as the two-hybrid in NMY32, but in a modified NMY32 strain in which Pxr1^D at the genomic locus is replaced by CoV2^C (Pxr1^GM-CoV2^C strain)

B1: Pxr1^F126A (yeast two-hybrid fusion) (protein, UniProt P53335 1-271)
chain: MGLAATRTKQRFGLDPRNTAWSNDTSRFGHQFLEKFGWKPGMGLGLSPMNSNTSHIKVSIKDDNVGLGAKLKRKDKKDEFDNGECAGLDVFQRILGRLNGKESKISEELDTQRKQKIIDGKWGIHAVKGEVLASTWDPKTHKLRNYSNAKKRKREGDDSEDEDDDDKEDKDSDKKKHKKHKKHKKDKKKDKKDKKEHKKHKKEEKRLKKEKRAEKTKETKKTSKLKSSESASNIPDAVNTRLSVRSKWIKQKRAALMDSKALNEIFMITND
binding: binds
